Data published in PubChem BioAssay AID901 (National Center for Advancing Translational Sciences (NCATS), 2007).
Fewer than 10 of roughly 120,000 compounds were called active. The shares of active, inactive and inconclusive entries below differ from those in the screen. Calls follow the shape of the dose curve; as a rule, active = well fitted curve in the direction sought with a large enough effect in the signal ratio (not every such curve was filed as active); inconclusive = small, poorly fitted or top-dose-only effect, or a change in a side signal; inactive = no such curve, though single readings can be large or run the other way; the % refers to the signal ratio. Potencies of inconclusive entries are left out as doubtful fits.
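Also: cells stimulated with carbachol in lithium chloride buffer.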
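For inhibition (IP1 accumulation) in this document: plate controls were DMSO basal wells for no effect and reference inhibitor wells for full effect; higher means more IMPase inhibition seen as more IP1 and lower FRET ratio.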

The compounds below were run against Inositol monophosphatase 1 (Rattus norvegicus) (UniProt P97697) (assay: qHTS Assay for Identifying the Cell-Membrane Permeable IMPase Inhibitors). Conditions: CHO-M1 cells, HTRF TR-FRET ratio; Potency: IP1 accumulation unless noted; inhibition (IP1 accumulation): at 46.1 µM (top of the series) unless noted.
UniProt P97697, sequence (P97697 whole entry, looked up): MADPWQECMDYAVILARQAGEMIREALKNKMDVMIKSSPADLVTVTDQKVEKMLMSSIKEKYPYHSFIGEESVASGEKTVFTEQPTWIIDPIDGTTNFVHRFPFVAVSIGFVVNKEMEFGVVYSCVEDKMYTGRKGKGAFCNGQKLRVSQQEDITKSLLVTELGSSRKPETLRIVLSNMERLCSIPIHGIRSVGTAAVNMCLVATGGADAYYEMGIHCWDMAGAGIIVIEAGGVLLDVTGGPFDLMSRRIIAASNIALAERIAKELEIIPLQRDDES
Excerpt: NCGC IMPase Assay Overview
Lithium has been widely used for the treatment of bipolar disorder. But lithium has a narrow therapeutic index and it can cause side effects such as thirst, weight gain, tremor, polyuria and memory problems. Although the mechanism for lithium action in treatment of bipolar disorder is still not fully understood, inhibition of inositol monophosphatase (IMPase) and the subsequent depletion of the inositol pool in living cells have been implicated as the primary therapeutic benefit of lithium therapy. Therefore, a selective IMPase inhibitor with reduced side effects might be a good drug candidate to replace lithium for the treatment of bipolar disorder. Several IMPase inhibitors have been discovered previously. However, they are not suitable for therapeutic use because of their poor cell membrane penetrability or oral bioavailability; the development of new cell-permeable IMPase inhibitors is needed.
IMPase catalyzes the hydrolysis of inositol-1-phosphate (IP1) to release free inositol. Binding of an agonist to a Gq coupled GPCR results in the activation of PLC, which hydrolyzes the PIP2 to form inositol-1,4,5-trisphosphate (IP3) and diacyl glycerol (DAG). While DAG activates protein kinase C (PKC), IP3 triggers the elevation of intracellular free Ca2+. The IP3 is very rapidly inactivated by hydrolysis to IP2, IP1 and then inositol by a series of enzymes including IMPase. Free inositols are used for synthesis of PI and thus start another inositol cycle.
To identify new cell-permeable IMPase inhibitors, we developed a cell-based IMPase assay in which the cytosolic IP1 is measured by a time-resolved fluorescence resonance energy transfer (TR-FRET) assay. In this assay, an IP1 specific antibody is used to detect the labeled IP1 tracer. When the cell lysate contains the elevated IP1 due to the inhibition of IMPase, the TR-FRET between the labeled antibody and IP1 tracer is disrupted resulting in a reduction in the total signal. Since the TR-FRET is used, this cell-based assay is a homogenous assay without cell wash and medium change that is suitable for assay miniaturization and HTS.
NCGC IMPase Assay Protocol Summary
A Chinese hamster ovary (CHO) cell line stably expressing the M1 receptor (CHO-M1) was obtained from ATCC and maintained in F-12 Kaighn's media (Invitrogen, Carlsbad, CA, 21127) supplemented with 10 % FBS, 100 units/ml penicillin, 100 ug/ml streptomycin and 250 ug/ml geneticin at 37C, 5% CO2 in a humidified atmosphere. Before the assay, aliquots of cells were frozen and stored at -135C. The assay was performed in 1536-well format. Data are reported for both the ratio of the two emission wavelengths, and also for the component 'donor' channel, Em2=620. […] AC50 values were determined from concentration-response data modeled with the standard Hill equation.
IMPase 1536-well assay protocol:
(1) Plate 4 ul/well (2000 cells) of cell suspension from frozen CHO-M1 Cells in white, tissue culture treated 1536-well plates that are cultured at 37C, 5 % CO2 for 16 to 30 hours.
(2) Add 23 nl/well of compound in DMSO solution. The final titration for each compound was between 0.6 nM and 46 uM.
(3) Add 1 ul of carbachol (50 uM in stimulation buffer containing10mM HEPES, 1mM CaCl2, 0.5 mM MgCl2, 4.2 mM KCl, 146 mM NaCl, 5.5 mM glucose, 50mM LiCl, pH 7.4.
(4) Incubation at 37C, 5 % CO2 for 30 min.
(5) Add 1 ul/well of d2-conjugated IP1 (d2-IP1) and 1 ul/well of Eu+ cryptate conjugated anti-IP1 antibody (Eu+-Ab) prepared in the cell lysis buffer, both from the IP-One kit (Cisbio, MA).
(6) Incubate at room temperature for 10 minutes.
(7) Detect the assay plate (Ex = 320, Em1 =665 and Em2 620) in a ViewLux plate reader.
inositol monophosphatase, IMPase, IMPase inhibitor, lithium, bipolar disorder, IP-One, HTRF, qHTS, NIH roadmap, NCGC
Note: In the gene ID and protein GI references for this assay, rat IMPase is referenced instead of hampster as hamster accession numbers were not available.
For `CCOc1ccc(NC(=NCc2ccc3c(c2)OCO3)SC2CC(=O)N(c3ccccc3)C2=O)cc1` (configuration not stated), the “inhibition (IP1 accumulation)” value was inactive: -9.33%. With `CCOC(=O)c1ccccc1NC(=O)Nc1cc2c(cc1N1CCCCC1)n(C)c(=O)n2C` the “inhibition (IP1 accumulation)” value was inactive: 10.9%. With `COc1ccccc1NC(=O)N1CCN(c2cc(-c3ccccc3)nc3ncnn23)CC1` the “inhibition (IP1 accumulation)” value was inactive: -1.48%. With `COc1cc(-c2noc(-c3cccc(Cl)c3)n2)cc(OC)c1OC` the Potency was inconclusive [inhibitor, single point]. In the case of `CC1CN(c2nc(-c3ccccc3)nnc2-c2ccccc2)CC(C)O1` (configuration not stated), the inhibition (IP1 accumulation) is reported as inconclusive: -13.9% [phenotype inactive]. For `COc1ccc(C(=O)NCC23C=CC(O2)C2C(=O)N(Cc4ccccc4)C(=O)C23)cc1` (configuration not stated), the “inhibition (IP1 accumulation)” value was inactive: 14.7%. In the case of `COc1ccccc1N(O)C1CC(=O)N(c2ccc(Br)cc2)C1=O` (configuration not stated), the “inhibition (IP1 accumulation)” value is reported as inactive: 1.09%. In the case of `CCCc1cc(-c2[nH]ncc2-c2ccc3c(c2)OCCCO3)c(O)cc1OC`, the “inhibition (IP1 accumulation)” value is reported as inactive: 5.52%. `CC(C)NC(=O)c1ccccc1NC(=O)C1COc2ccccc2O1` (configuration not stated) was tested, and the inhibition (IP1 accumulation) was inconclusive: -4.88% [phenotype inactive]. With `CCn1c(SCC(=O)Nc2nccs2)nnc1-c1ccc(S(=O)(=O)N2CCCCCC2)cc1` the Potency was inconclusive [falling, single point]. In the case of `Cc1cc(N2CCN(S(=O)(=O)c3ccc4c(c3)OCCO4)CC2)n2ncnc2n1`, the inhibition (IP1 accumulation) is reported as inconclusive: -4.43%. With `COc1ccc(C(CC(=O)O)NC(=O)c2sc3ccccc3c2Cl)cc1` (configuration not stated) the Potency was inconclusive [falling, partial curve]. For `COc1ccc(/C(O)=C2/C(=O)C(=O)N(CCN(C)C)C2c2ccccc2)cc1Cl` (configuration not stated), the Potency was inconclusive [inhibitor, partial curve]. For `Cc1c(CN(C)C(=O)c2cc(-c3ccccc3)nc3ccc(Br)cc23)cnn1C`, the Potency was inconclusive [falling, partial curve]. `CC[C@H](C)[C@H](N)C1=N[C@H](C(=O)N[C@@H](CC(C)C)C(=O)N[C@@H](CCC(=O)O)C(=O)N[C@@H](C(=O)N[C@H]2CCCCNC(=O)[C@@H](CC(N)=O)NC(=O)[C@@H](CC(=O)O)NC(=O)[C@@H](Cc3cnc[nH]3)NC(=O)[C@@H](Cc3ccccc3)NC(=O)[C@@H]([C@@H](C)CC)NC(=O)[C@@H](CCCN)NC2=O)[C@@H](C)CC)CS1` was tested, and the “inhibition (IP1 accumulation)” value was inactive: 5.28% [at 20.6 µM]. `CCn1c2ccccc2c2nnc(SCC(=O)Nc3cc(C)on3)nc21` was tested, and the Potency was inconclusive [inhibitor, single point]. With `O=C1CN(C(=O)c2cc([N+](=O)[O-])ccc2Cl)C(c2ccccc2)c2cc(F)ccc2N1` (configuration not stated) the inhibition (IP1 accumulation) was inconclusive: 13.8%. In the case of `Cc1ccccc1NS(=O)(=O)c1ccc(OCC(=O)NCc2cccnc2)cc1`, the inhibition (IP1 accumulation) is reported as inconclusive: -13.4% [phenotype inactive]. In the case of `Cc1ccccc1-n1c(SCc2csc(Nc3ccccc3)n2)nnc1-c1cccnc1`, the inhibition (IP1 accumulation) is reported as inconclusive: 13.5% [phenotype inactive]. In the case of `O=c1c2ccccc2sc2ccc(Cl)cc12`, the Potency is reported as inconclusive [falling, single point]. `O=C(Cc1ccc(Cl)cc1)N1CCN(C(=O)c2ccco2)CC1` was tested, and the “inhibition (IP1 accumulation)” value was inactive: 2.98%. `CCOc1ccc(/C(O)=C2/C(=O)C(=O)N(CCOCCO)C2c2ccc(F)cc2)cc1` (configuration not stated) was tested, and the Potency was inconclusive [falling, partial curve]. With `O=C(COc1ccc2ccccc2c1Br)Nn1cnnc1` the Potency was inconclusive [inhibitor, single point]. With `Clc1ccccc1Sc1cnc2ccccc2n1` the Potency was inconclusive [falling, partial curve]. For `Cc1ccc(Nc2c(-c3ccc(N(C)C)cc3)nc3ccccn23)cc1`, the inhibition (IP1 accumulation) was inconclusive: -6.27% [phenotype inactive]. With `COc1ccccc1-c1n[nH]c(=S)n1-c1ccccc1` the Potency was inconclusive [falling, partial curve]. With `COc1ccc(/C(O)=C2/C(=O)C(=O)N(Cc3ccco3)C2c2cccs2)cc1` (configuration not stated) the “inhibition (IP1 accumulation)” value was inactive: 2.9%. `Cc1cc(C)c(C(N)=O)c(Nc2cccc3ccccc23)n1` was tested, and the inhibition (IP1 accumulation) was inconclusive: -1.63% [phenotype inactive]. `Cc1ccc(O)c(N=CC2=C(O)c3ccccc3C2=O)c1` was tested, and the Potency was inconclusive [falling, partial curve]. In the case of `CS(=O)(=O)Nc1ccc(C(=O)Nc2ccc3c(c2)OCCO3)cc1`, the Potency is reported as inconclusive [inhibitor, single point]. In the case of `O=C1c2c(O)ccc(O)c2C(=O)c2c(NCCNCCO)ccc(NCCNCCO)c21`, the Potency is reported as inconclusive [rising, partial curve]. With `O=C(CSc1ccc2nnc(-c3ccc(Cl)cc3)n2n1)N1CCCC1` the Potency was inconclusive [falling, single point]. With `CC(C)C1Cc2c(sc(NC(=S)NC(=O)c3ccccc3)c2C#N)CO1` (configuration not stated) the “inhibition (IP1 accumulation)” value was inactive: -0.179%. For `Cc1c(SCCO)c(=O)[nH]c2cc3c(cc12)OCO3`, the Potency was inconclusive [inhibitor, partial curve]. In the case of `CCc1c(C)c2ccc(O)c(CN(C)C)c2oc1=O`, the Potency is reported as inconclusive [falling, partial curve]. `COCCn1c(=N)c(C(=O)NCC2CCCO2)cc2c(=O)n3ccccc3nc21` (configuration not stated) was tested, and the “inhibition (IP1 accumulation)” value was inactive: -8.05%. For `CCOC(=O)CSc1nc(N)c(C#N)c(-c2ccc(OC)cc2)c1C#N`, the Potency was inconclusive [falling, single point]. `O=C(CN1C(=O)NC2(CCCCCC2)C1=O)N1CCC(Cc2ccccc2)CC1` was tested, and the inhibition (IP1 accumulation) was inconclusive: 2.89% [phenotype inactive]. `CCCN(CCC)C(=O)Cn1c2ccccc2c2nc(=O)cc(C)n21` was tested, and the Potency was inconclusive [falling, single point]. `C#CCSc1nc(-c2ccccc2)cc(C(F)(F)F)c1C#N` was tested, and the Potency was inconclusive [falling, partial curve]. With `CCOC(=O)c1sc2ncnc(NCc3ccco3)c2c1C` the Potency was inconclusive [inhibitor, partial curve]. For `CCOC(=O)N1CCN(S(=O)(=O)c2ccc(C(=O)Nc3nc4ccccc4s3)cc2)CC1`, the Potency was inconclusive [inhibitor, single point].
